Lines with a small IC50 respond at low doses; a fit beyond the top or the lowest dose is shown as a bound at that dose. AUC sums up the same curve from the lowest dose to the 256-fold higher top dose; the more sensitive the line, the further below 1. For some assays here: Any top dose called inferred is not printed in the source and was worked back from the curve model.
Assays:
Assay in all cases: Viability of human cancer cell lines after 72 h of drug (GDSC screen)
Bexarotene = compound: C=C(c1ccc(C(=O)O)cc1)c1cc2c(cc1C)C(C)(C)CCC2(C)C [Bexarotene]; settings: top dose 8 µM
Description: (§1)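 Human cancer cell lines in 384-well plates, medium with 10% serum, drug for 72 h over a 256-fold dose range (nine 2-fold or five 4-fold steps up to the top dose). Adherent lines were fixed and stained with the nucleic acid dye Syto60, suspension lines read with resazurin; signal relative to control wells, capped at 0 and 100%. One two-parameter sigmoid per drug and line, fitted in a mixed model over all curves with the slope shared within a line.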

NPK76-II-72-1 = compound: COc1cc(C(=O)NC2CCN(C)CC2)ccc1Nc1ncc2c(n1)N(C1CCCC1)C(C)CC(=O)N2C [NPK76-II-72-1]; settings: top dose 10.24 µM; top dose inferred
Description: as §1

Etoposide = compound: COc1cc([C@@H]2c3cc4c(cc3[C@@H](O[C@@H]3O[C@@H]5CO[C@@H](C)O[C@H]5[C@H](O)[C@H]3O)[C@H]3COC(=O)[C@H]23)OCO4)cc(OC)c1O [Etoposide]; settings: top dose 16 µM
Description: as §1

BMS-345541 = compound: Cc1ccc2nc(NCCN)c3ncc(C)n3c2c1 [BMS-345541]; settings: top dose 16 µM
Description: as §1

AZD7762 = compound: NC(=O)Nc1cc(-c2cccc(F)c2)sc1C(=O)N[C@H]1CCCNC1 [AZD7762]; settings: top dose 2 µM
Description: as §1

GSK-650394 = compound: O=C(O)c1ccc(-c2c[nH]c3ncc(-c4ccccc4)cc23)cc1C1CCCC1 [GSK-650394]; settings: top dose 16 µM; top dose inferred
Description: as §1

XAV 939 = compound: Oc1nc(-c2ccc(C(F)(F)F)cc2)nc2c1CSCC2 [XAV 939]; settings: top dose 5 µM; top dose inferred
Description: as §1

Row | Cell Line | AUC (Bexarotene) | IC50 (Bexarotene) [µM] | AUC (NPK76-II-72-1) | IC50 (NPK76-II-72-1) [µM] | AUC (Etoposide) | IC50 (Etoposide) [µM] | AUC (BMS-345541) | IC50 (BMS-345541) [µM] | AUC (AZD7762) | IC50 (AZD7762) [µM] | AUC (GSK-650394) | IC50 (GSK-650394) [µM] | AUC (XAV 939) | IC50 (XAV 939) [µM]
1 | KYSE-220 (oesophagus, adherent) | 0.98 | > 8 | 0.941 | > 10.2 | 0.518 | 1.12 | 0.895 | > 16 | 0.679 | 0.407 | 0.845 | 12.5 | 0.976 | > 5
2 | KYSE-410 (oesophagus, adherent) | 0.969 | > 8 | 0.961 | > 10.2 | 0.786 | 7.39 | 0.917 | > 16 | 0.603 | 0.244 | 0.871 | > 16 | 0.983 | > 5
3 | LB771-HNC (head and neck, adherent) | 0.717 | 2.43 | 0.931 | > 10.2 | 0.885 | > 16 | 0.799 | 10 | 0.723 | 0.641 | 0.93 | > 16 | 0.968 | > 5
4 | LB831-BLC (bladder, adherent) | 0.983 | > 8 | 0.944 | > 10.2 | 0.756 | 5.55 | 0.959 | > 16 | 0.923 | > 2 | 0.919 | > 16 | 0.98 | > 5
5 | LC-1-sq (lung squamous cell carcinoma, adherent) | 0.97 | > 8 | 0.934 | > 10.2 | 0.944 | > 16 | 0.897 | > 16 | 0.491 | 0.117 | 0.914 | > 16 | 0.983 | > 5
6 | LXF-289 (lung adenocarcinoma, adherent) | 0.857 | 6.31 | 0.817 | 5.61 | 0.607 | 1.95 | 0.906 | > 16 | 0.721 | 0.521 | 0.59 | 1.76 | 0.787 | 2.14
7 | LoVo (large intestine, adherent) | 0.819 | 4.61 | 0.936 | > 10.2 | 0.622 | 2.18 | 0.906 | > 16 | 0.585 | 0.214 | 0.745 | 5.08 | 0.972 | > 5
8 | MC-CAR (haematopoietic neoplasm, suspension) | 0.915 | > 8 | 0.495 | 0.623 | 0.382 | 0.491 | 0.701 | 3.42 | 0.546 | 0.164 | 0.91 | > 16 | 0.972 | > 5
9 | MDA-MB-415 (breast, adherent) | 0.958 | > 8 | 0.974 | > 10.2 | 0.944 | > 16 | 0.978 | > 16 | 0.92 | > 2 | 0.914 | > 16 | 0.959 | > 5
10 | MDST8 (large intestine, adherent) | 0.988 | > 8 | 0.969 | > 10.2 | 0.893 | > 16 | 0.91 | > 16 | 0.682 | 0.4 | 0.978 | > 16 | 0.986 | > 5
11 | MIA-PaCa-2 (pancreas, adherent) | 0.755 | 2.96 | 0.969 | > 10.2 | 0.637 | 2.48 | 0.953 | > 16 | 0.541 | 0.164 | 0.687 | 3.53 | 0.982 | > 5
12 | MSTO-211H (mesothelioma, adherent) | 0.991 | > 8 | 0.978 | > 10.2 | 0.991 | > 16 | 0.972 | > 16 | 0.656 | 0.324 | 0.99 | > 16 | 0.931 | > 5
13 | NALM-6 (B-cell leukaemia, suspension) | 0.968 | > 8 | 0.496 | 0.625 | 0.246 | 0.217 | 0.839 | 8.48 | 0.609 | 0.236 | 0.795 | 6.09 | 0.988 | > 5
14 | NB14 (neuroblastoma, adherent) | 0.989 | > 8 | 0.7 | 2.25 | 0.594 | 1.78 | 0.934 | > 16 | 0.396 | 0.066 | 0.948 | > 16 | 0.988 | > 5
15 | NCI-H28 (mesothelioma, adherent) | 0.981 | > 8 | 0.977 | > 10.2 | 0.885 | > 16 | 0.947 | > 16 | 0.652 | 0.379 | 0.948 | > 16 | 0.956 | > 5
16 | NCI-H226 (lung squamous cell carcinoma, adherent) | 0.981 | > 8 | 0.7 | 2.41 | 0.776 | 6.7 | 0.913 | > 16 | 0.939 | > 2 | 0.885 | > 16 | 0.981 | > 5
17 | NCI-H292 (lung adenocarcinoma, adherent) | 0.966 | > 8 | 0.787 | 5.52 | 0.695 | 3.99 | 0.886 | > 16 | 0.781 | 1.02 | 0.897 | > 16 | 0.535 | 0.398
18 | NCI-H647 (non-small cell lung carcinoma, adherent) | 0.84 | 5.87 | 0.812 | 5.81 | 0.588 | 1.77 | 0.864 | 15.1 | 0.593 | 0.227 | 0.722 | 4.42 | 0.744 | 1.63
19 | NCI-H1437 (lung adenocarcinoma, adherent) | 0.932 | > 8 | 0.904 | > 10.2 | 0.692 | 3.55 | 0.795 | 7.74 | 0.733 | 0.594 | 0.741 | 5.05 | 0.973 | > 5

Row | Cell Line | AUC (Bexarotene) | IC50 (Bexarotene) [µM] | AUC (NPK76-II-72-1) | IC50 (NPK76-II-72-1) [µM] | AUC (Etoposide) | IC50 (Etoposide) [µM] | AUC (BMS-345541) | IC50 (BMS-345541) [µM] | AUC (AZD7762) | IC50 (AZD7762) [µM] | AUC (GSK-650394) | IC50 (GSK-650394) [µM] | AUC (XAV 939) | IC50 (XAV 939) [µM]
20 | NCI-H2087 (lung adenocarcinoma, semi-adherent) | 0.879 | > 8 | 0.906 | > 10.2 | 0.471 | 0.829 | 0.709 | 4.09 | 0.906 | > 2 | 0.813 | 9.51 | 0.966 | > 5
21 | NCI-H3122 (lung adenocarcinoma, adherent) | 0.936 | > 8 | 0.552 | 0.889 | 0.448 | 0.717 | 0.85 | 12.7 | 0.654 | 0.34 | 0.825 | 9.99 | 0.777 | 2.07
22 | NCI-SNU-16 (stomach, suspension) | 0.991 | > 8 | 0.935 | > 10.2 | 0.991 | > 16 | 0.911 | > 16 | 0.665 | 0.339 | 0.99 | > 16 | 0.983 | > 5
23 | OCUM-1 (stomach, adherent) | 0.966 | > 8 | 0.986 | > 10.2 | 0.92 | > 16 | 0.981 | > 16 | 0.452 | 0.0912 | 0.974 | > 16 | 0.985 | > 5
24 | OV-90 (ovary, adherent) | 0.951 | > 8 | 0.895 | > 10.2 | 0.549 | 1.41 | 0.853 | > 16 | 0.666 | 0.416 | 0.926 | > 16 | 0.945 | > 5
25 | PFSK-1 (medulloblastoma, adherent) | 0.986 | > 8 | 0.868 | > 10.2 | 0.901 | > 16 | 0.879 | > 16 | 0.604 | 0.246 | 0.902 | > 16 | 0.984 | > 5
26 | PL4 (pancreas, adherent) | 0.986 | > 8 | 0.954 | > 10.2 | 0.812 | 8.94 | 0.93 | > 16 | 0.722 | 0.548 | 0.967 | > 16 | 0.898 | > 5
27 | RCC10RGB (kidney, adherent) | 0.871 | > 8 | 0.961 | > 10.2 | 0.911 | > 16 | 0.894 | > 16 | 0.927 | > 2 | 0.964 | > 16 | 0.931 | > 5
28 | RCM-1 (large intestine, adherent) | 0.977 | > 8 | 0.984 | > 10.2 | 0.816 | 11.3 | 0.887 | > 16 | 0.774 | 0.962 | 0.96 | > 16 | 0.982 | > 5
29 | SAT (head and neck, adherent) | 0.934 | > 8 | 0.908 | > 10.2 | 0.961 | > 16 | 0.87 | > 16 | 0.708 | 0.676 | 0.921 | > 16 | 0.688 | 1.42
30 | SF126 (glioma, adherent) | 0.935 | > 8 | 0.956 | > 10.2 | 0.573 | 1.6 | 0.897 | > 16 | 0.631 | 0.293 | 0.711 | 4.09 | 0.98 | > 5
31 | SF268 (glioma, adherent) | 0.939 | > 8 | 0.884 | > 10.2 | 0.638 | 2.49 | 0.802 | 8.59 | 0.591 | 0.226 | 0.808 | 9.04 | 0.976 | > 5
32 | SF295 (glioma, adherent) | 0.858 | 7.44 | 0.973 | > 10.2 | 0.571 | 1.59 | 0.898 | > 16 | 0.65 | 0.338 | 0.724 | 4.58 | 0.885 | > 5
33 | SK-MM-2 (myeloma, suspension) | 0.972 | > 8 | 0.878 | > 10.2 | 0.783 | 7.05 | 0.767 | 6.2 | 0.958 | > 2 | 0.984 | > 16 | 0.985 | > 5
34 | SKN (uterus, adherent) | 0.947 | > 8 | 0.982 | > 10.2 | 0.716 | 4.72 | 0.879 | > 16 | 0.434 | 0.0796 | 0.881 | > 16 | 0.879 | > 5
35 | SNU-387 (liver, adherent) | 0.924 | > 8 | 0.838 | 8.34 | 0.841 | 13.4 | 0.862 | > 16 | 0.442 | 0.0848 | 0.943 | > 16 | 0.961 | > 5
36 | SW626 (ovary, adherent) | 0.939 | > 8 | 0.923 | > 10.2 | 0.796 | 9.12 | 0.817 | 11.2 | 0.713 | 0.567 | 0.847 | 15.3 | 0.932 | > 5
37 | SW948 (large intestine, adherent) | 0.981 | > 8 | 0.938 | > 10.2 | 0.966 | > 16 | 0.919 | > 16 | 0.915 | > 2 | 0.866 | > 16 | 0.979 | > 5
